Among all 220,000 compounds or so, about 16,000 (7.3%) were called active. Inconclusive results, whose numbers are uncertain, are shown with a selection of clear calls. Calls come from the whole dose curve; as a rule, active = well fitted inhibition curve with a large enough effect (not every such curve was filed as active); inconclusive = small, poorly fitted or top-dose-only effect, or another doubt; inactive = no such curve, though single readings can be large or run the other way. Where the call is inconclusive, the potency comes from a doubtful curve fit.
Biological target: Aldehyde dehydrogenase 1A1 (Homo sapiens) (UniProt P00352)
Test: qHTS Assay for Inhibitors of Aldehyde Dehydrogenase 1 (ALDH1A1)
Conditions: Purified ALDH1A1, NADH fluorescence, propionaldehyde substrate; series mostly up to 75.3 µM
Potency is the fitted concentration of half-maximal effect; tags give direction and shape of the fitted curve.

Chain of UniProt P00352 (P00352 whole entry, looked up): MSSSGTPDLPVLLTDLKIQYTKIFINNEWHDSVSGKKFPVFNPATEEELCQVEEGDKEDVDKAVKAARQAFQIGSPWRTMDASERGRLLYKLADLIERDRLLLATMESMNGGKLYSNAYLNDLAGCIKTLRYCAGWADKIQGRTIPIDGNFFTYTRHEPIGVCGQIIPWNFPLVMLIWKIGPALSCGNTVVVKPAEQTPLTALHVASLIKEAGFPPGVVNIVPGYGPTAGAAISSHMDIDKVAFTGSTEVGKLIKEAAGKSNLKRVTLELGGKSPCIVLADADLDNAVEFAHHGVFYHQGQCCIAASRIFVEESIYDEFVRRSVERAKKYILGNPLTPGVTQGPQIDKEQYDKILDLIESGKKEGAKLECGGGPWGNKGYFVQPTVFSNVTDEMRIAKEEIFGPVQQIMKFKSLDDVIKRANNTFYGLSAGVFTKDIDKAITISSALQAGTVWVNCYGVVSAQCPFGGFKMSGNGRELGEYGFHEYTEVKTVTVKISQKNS

Potency, active:
COc1ccc(/C=N/N=C2\SC(CC(=O)O)C(=O)N2c2ccccc2)c(OC)c1 (centres undefined) 20 µM
O=c1c(CCc2ccccc2)nc2cnc(Oc3ccccc3)nc2n1C1CC1 11.2 µM
CC(Sc1nnc(Nc2ccccc2)s1)C(=O)NC1CCCc2ccccc21 (centres undefined) 31.6 µM
Oc1ccc(O)c(Cc2nc3ccccc3s2)c1 20 µM
COc1cc(/C=C2\SC(=O)N(Cc3ccc(F)cc3)C2=O)cc([N+](=O)[O-])c1O 0.708 µM
CN(C)c1ccc(NC(=O)c2cccc(C(=O)Nc3ccc(N(C)C)cc3)n2)cc1 8.91 µM
COc1cc(NC(=S)N2CCN(C(=O)c3ccco3)CC2)c(OC)cc1Cl 25.1 µM
CC(=O)Nc1ccc(N2C(=O)CC(N3CC(C)OC(C)C3)C2=O)cc1 (centres undefined) 7.94 µM
O=C(CCNc1cccc(F)c1)c1cccc([N+](=O)[O-])c1 0.631 µM
CCN(CC)S(=O)(=O)c1ccc(NC2c3ccccc3C(=O)N2c2ccc(C)cn2)cc1 (centres undefined) 17.8 µM
Fc1cnc(N2CCc3ccccc32)nc1N1CCc2ccccc21 2.24 µM
C=CCN1CCN(C(c2cc(OC)ccc2OC)c2nnnn2CC2CCCO2)CC1 (centres undefined) 28.2 µM
COC(=O)c1sc(NC(=O)c2ccc(Cn3cc(Cl)cn3)o2)c(C#N)c1C 3.55 µM
CCCCN1CSC(=S)N(Cc2ccccc2)C1 3.55 µM
CCN(Cc1ccccc1)c1ccc(/C=N/NS(=O)(=O)c2ccc(C)c([N+](=O)[O-])c2)cc1 3.16 µM
CC(C)CN(C#N)c1nc(N2CCOCC2)nc(N2CCOCC2)n1 7.94 µM
CCOC(=O)NC(=O)/C(C#N)=C/c1ccc(N(C)C)cc1 12.6 µM

Potency, inconclusive:
COc1ccc(C(=O)N2CCCCC2)cc1S(=O)(=O)Nc1cccc(C(=O)O)c1 28.2 µM [inhibitor, single point]
O=C(Nc1ccc2c(c1)oc1ccccc12)c1cccnc1 39.8 µM [inhibitor, single point]
Cc1ccccc1/C=C\c1nc2ccccc2c(=O)n1Cc1ccccc1 3.16 µM [inhibitor, single point]
CCC(C)n1c(=N)c(C#N)cc2c(=O)n3cc(C)ccc3nc21 (centres undefined) 3.98 µM [inhibitor, full curve]
Oc1cnc2ccccc2c1CN1CCOCC1 28.2 µM [inhibitor, partial curve]
COc1ccccc1-n1c(C)nnc1SCC(=O)Nc1cccc(C(C)=O)c1 39.8 µM [inhibitor, single point]
CCNc1ncc2nc(-c3ccc(OC)cc3)c(=O)n(CCC#N)c2n1 20 µM [inhibitor, partial curve]
CCn1c(SCC(=O)c2ccc(C)cc2)nnc1-c1ccoc1C 39.8 µM [inhibitor, single point]
COc1ccccc1[C@H]1C(c2ccccc2)=NN(c2ccccc2)[C@@H]1CO 35.5 µM [inhibitor, partial curve]
COc1ccc(C2=NN(C(=O)COc3ncnc4ccccc34)C(c3ccco3)C2)cc1 (centres undefined) 31.6 µM [inhibitor, single point]
COc1cccc(NC(=O)CSc2nnnn2C(C)C)c1 22.4 µM [inhibitor, single point]
CC(=O)N1CCc2c(sc(NC(=O)C3CC3)c2-c2nc3ccccc3s2)C1 17.8 µM [inhibitor, partial curve]
CCN(CC(=O)Nc1ccc2c(c1)OCO2)Cc1nc2ccccc2c(=O)[nH]1 25.1 µM [inhibitor, partial curve]
COc1cc(-c2n[nH]c(=O)o2)cc(OC)c1OC 39.8 µM [inhibitor, single point]
O=C(NCCc1cn2ccccc2n1)c1cc(COc2ccc3ncccc3c2)on1 37.7 µM [inhibitor, partial curve, poor fit]
O=C(O)CCn1cc(C2CC(c3ccccc3)=NN2c2ccccc2)c(-c2ccccc2)n1 (centres undefined) 28.2 µM [inhibitor, partial curve]
O=C(NCCc1ccccc1)C1CCN(S(=O)(=O)c2cccc3nsnc23)CC1 28.2 µM [inhibitor, single point]
COc1ccccc1N(CC(=O)NC1CCCC1)C(=O)CCC(=O)Nc1cc(C)on1 39.8 µM [inhibitor, single point]
COCC(=O)Nc1nc2n(n1)C(c1ccc(Cl)cc1)CC(c1ccc(OC)cc1)N2 (centres undefined) 35.5 µM [inhibitor, single point]
CC1=CC(c2ccccc2)n2nc(N3C(=O)CCC3=O)nc2N1 (centres undefined) 35.5 µM [inhibitor, single point]
CCOC(=O)C1(CCOc2ccccc2)CCN(Cc2cccc3nonc23)CC1 31.6 µM [inhibitor, single point]
Cc1ccc2nc(-c3ccc(SCC(=O)N4CCc5ccccc54)nc3)[nH]c2c1 25.1 µM [inhibitor, single point]
COc1cccc(NC(=O)c2ccccc2-c2nc(-c3ccc(F)cc3)no2)c1 28.2 µM [inhibitor, single point]
Cc1csc(=Nc2ccc(S(=O)(=O)N3CCOCC3)cc2)n1Cc1ccco1 39.8 µM [inhibitor, single point]
CN(C)S(=O)(=O)c1ccc(Cl)c(NC(=O)COC(=O)/C=C/c2ccco2)c1 39.8 µM [inhibitor, single point]
O=C1c2ccccc2NC(c2ccc(O)cc2)N1/N=C/c1ccc(O)cc1 (centres undefined) 39.8 µM [inhibitor, single point]
CCOC(=O)C1CCN(c2c([N+](=O)[O-])c(C(Cl)Cl)nn2-c2ccccc2)CC1 39.8 µM [inhibitor, single point]
CCOc1ncccc1C(=O)OCC(=O)c1ccc(C)c(C)c1 44.7 µM [inhibitor, single point]
Cc1cc(C(=O)CSc2cccc[n+]2[O-])c(C)n1-c1ccccc1 22.4 µM [inhibitor, single point]
COC(=O)c1cn(NC(=O)CCC2CCCC2)c(=O)c2ccccc12 15.8 µM [inhibitor, partial curve]
COc1cccc(-n2nnnc2SCC(=O)NCCc2ccccc2)c1 44.7 µM [inhibitor, single point]
O=C(CSc1nnc(Cn2c(=O)sc3ccccc32)n1-c1ccccc1)NCc1ccco1 8.91 µM [inhibitor, single point]
CC(=O)c1ccc2c3c(cccc13)CC2 39.8 µM [inhibitor, single point]
O=[N+]([O-])c1ccc([C@@H](Nc2ccccc2)c2ccc3cccnc3c2O)cc1 3.98 µM [inhibitor, single point]
CCCC(=O)Nc1cccc(-c2nc3cc(C)c(C)cc3o2)c1 39.8 µM [inhibitor, single point]
C=CCN(C(=O)CSc1nc2ccsc2c(=O)n1Cc1ccccn1)c1ccccc1 39.8 µM [inhibitor, single point]
COc1ccc2[nH]c(=O)c(CN(C)C(=O)c3ccncc3)cc2c1 31.6 µM [inhibitor, single point]
Cc1ccc(OCCN2C(=O)C(=O)c3cc(C)ccc32)cc1 0.501 µM [inhibitor, partial curve, poor fit]
CCN(CC)S(=O)(=O)c1ccc(N2CCOCC2)c(NC(=O)C(=O)c2c(-c3ccccc3)cc3ccccn23)c1 10 µM [inhibitor, partial curve]

Potency, inactive:
COCCN(C(=O)Cn1nnc2ccccc21)C(C(=O)NC1CCCCC1)c1ccc(OC)cc1OC (centres undefined)
O=C(N/N=C/c1ccc(O)c(O)c1)c1cccc(S(=O)(=O)N2CCCCC2)c1
C/C(=N\NC(=O)Cn1nnc2ccccc21)c1ccco1
Cc1cc(OCCN2CCCC2)ccc1[N+](=O)[O-]
CCOC(=O)C1=C(C)NC(=O)NC1c1ccoc1 (centres undefined)
COc1ccccc1NC(NC(=O)c1cccnc1)C(Cl)(Cl)Cl (centres undefined)
O=C(Nc1ccc2nc(-c3ccc(Br)o3)[nH]c2c1)c1ccco1
CC(=O)NCCn1c(C)cc2ccccc21
COc1cccc2cc(C(=O)OC3CCN(C)CC3)c(=O)oc12
COc1ccc(S(=O)(=O)Nc2c(F)cccc2F)cc1
C/C(=N/OCO/N=C(/C)c1ccc(F)cc1)c1ccc(F)cc1
O=c1cc(CSc2nnc(NC3CCCCC3)s2)nc2sccn12
O=C(Nc1ccc(Cl)cc1)N1CCOC12CCCCC2
O=C(Nc1cccc(F)c1)N1CCC2(CC1)CCN(C(=O)c1cc(C(F)(F)F)cc(C(F)(F)F)c1)CC2
Cn1cc(-c2nc3cnc(Oc4ccccc4)nc3n(CCC#N)c2=O)c2ccccc21
Cc1ccccc1-c1cncnc1Nc1ccccc1
CC(=O)NS(=O)(=O)c1ccc(NC(=O)/C=C/c2ccccc2)cc1
O=C(O)CSc1nc2ccccc2c(=O)[nH]1
